Data published in publication PMC4336329 (PLoS ONE, 2015).
The campaign covered roughly 310,000 compounds. About 2,200 (0.71%) showed an effect of 50% or more. Effects have a minus sign here. Some of the results follow. Where a SMILES comes first, the peptide text is derived from it. The star is where a group is joined. Cbz = O=C(OCc1ccccc1)*

The molecules below were run against human ether-à-go-go-related gene (hERG) potassium channel (human, UniProt Q12809) (assay: primary screen, population patch clamp on CHO cells stably expressing hERG).
Sequence of human ether-à-go-go-related gene (hERG) potassium channel (Q12809 whole entry, looked up): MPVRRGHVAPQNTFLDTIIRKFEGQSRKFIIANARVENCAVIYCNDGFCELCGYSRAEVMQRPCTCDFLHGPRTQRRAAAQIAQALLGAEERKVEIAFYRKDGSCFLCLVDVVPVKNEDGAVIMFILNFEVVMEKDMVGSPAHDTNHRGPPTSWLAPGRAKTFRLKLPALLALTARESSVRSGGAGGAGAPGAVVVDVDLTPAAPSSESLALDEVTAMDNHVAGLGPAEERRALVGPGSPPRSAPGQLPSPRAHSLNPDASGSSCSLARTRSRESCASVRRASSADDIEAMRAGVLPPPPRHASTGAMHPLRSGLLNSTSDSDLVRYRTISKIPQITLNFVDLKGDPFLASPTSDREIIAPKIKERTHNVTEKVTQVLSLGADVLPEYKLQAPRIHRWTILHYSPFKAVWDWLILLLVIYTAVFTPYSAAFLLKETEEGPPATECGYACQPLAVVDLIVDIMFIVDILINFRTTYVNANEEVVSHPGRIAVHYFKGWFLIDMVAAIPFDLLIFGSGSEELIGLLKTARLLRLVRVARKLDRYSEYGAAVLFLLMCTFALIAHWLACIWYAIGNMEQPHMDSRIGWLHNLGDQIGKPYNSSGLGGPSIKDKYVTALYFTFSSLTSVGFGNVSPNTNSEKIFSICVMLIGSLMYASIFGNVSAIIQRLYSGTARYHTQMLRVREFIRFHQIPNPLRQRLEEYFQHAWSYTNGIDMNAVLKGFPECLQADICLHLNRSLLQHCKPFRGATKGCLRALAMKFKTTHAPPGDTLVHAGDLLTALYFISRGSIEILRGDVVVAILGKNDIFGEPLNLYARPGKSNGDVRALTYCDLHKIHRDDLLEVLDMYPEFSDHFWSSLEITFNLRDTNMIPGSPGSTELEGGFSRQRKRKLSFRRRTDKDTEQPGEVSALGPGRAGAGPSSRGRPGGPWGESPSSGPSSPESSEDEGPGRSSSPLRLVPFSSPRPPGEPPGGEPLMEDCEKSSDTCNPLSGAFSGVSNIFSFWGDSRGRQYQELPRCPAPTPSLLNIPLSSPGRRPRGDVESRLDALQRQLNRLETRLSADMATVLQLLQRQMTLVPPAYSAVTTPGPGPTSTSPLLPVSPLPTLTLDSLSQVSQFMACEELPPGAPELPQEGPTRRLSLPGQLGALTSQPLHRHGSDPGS

Row | Compound | hERG current change (%, negative = inhibition) at 1uM
1 | Nc1cc(N)c(OCC(F)(F)F)cc1OCC(F)(F)F | 12.5%
2 | Cc1c(C)n2c(SCC(=O)NC3CCCCC3)nnc2[nH]c1=O | 5.04%
3 | CCOC(=O)C1=C(COC(=O)COc2ccccc2OCC)NC(=O)NC1C (stereo not drawn) | 10.5%
4 | CN(C1CCCC1)C1CCN(C(=O)CNC(=O)/C=C/c2ccc(F)cc2)CC1 | -11.1%
5 | CCNS(=O)(=O)c1ccc(NC(=O)CC(C)c2ccccc2)cc1 (stereo not drawn) | 5.94%
6 | CS(=O)(=O)N(CC(=O)NCc1ccc2c(c1)OCO2)c1ccccc1 | 7.84%
7 | CCCc1cc(=O)oc2c(C)c(OCC(=O)N3CCC(C(N)=O)CC3)ccc12 | 13.3%
8 | COc1ccc(/C=C/C(=O)N2CCN(c3ccccn3)CC2)c(OC)c1OC | 5.69%
9 | N#CC1=C(S)N(c2ccc(F)cc2)C(c2ccco2)NC1=O (stereo not drawn) | 24.9%
10 | Cc1cc(C)c2c(=O)[nH]n(C3CC(C)N(C)CC3C)c2n1 (stereo not drawn) | 14.9%
11 | Cc1cccc(NC(=O)CSc2nnc(CNC(=O)c3cccs3)o2)c1C | 5.89%
12 | S=C1SCN(Cc2cccnc2)CN1Cc1cccnc1 | 5.84%
13 | COCCCN1C(=O)N(c2ccccc2)C(=O)C1CC(=O)Nc1ccccc1 (stereo not drawn) | 13.9%
14 | CSc1ccccc1C(=O)Nc1ccc2c(c1)CCC2 | -1.71%
15 | CCOC(=O)c1cc(S(=O)(=O)NC2CCC(C)CC2)cn1C (stereo not drawn) | 1.07%
16 | CC(C)C(=O)Nc1ccc(Br)cc1Cl | 2.08%
17 | CCOC(=O)/C(C#N)=C/Nc1cc(OC)ccc1OC | 8.95%
18 | O=C(Cn1cc2c(n1)CCCC2)NCC1CCCO1 (stereo not drawn) | 8.52%
19 | Br.CC(C)(C)N1Cc2ccccc2C1=N | 1.21%
20 | O=C1CCC/C(=N\NC(=O)COc2ccc(Cl)cc2)C1 | 6.17%
21 | Cc1[nH]n(C(N)=S)c(=O)c1N=Nc1ccc(S(=O)(=O)N2CCCC2)cc1 | 9.63%
22 | COc1ccc(C(=O)N2CCC(C(=O)c3c(C)cc(C)cc3C)CC2)cc1 | -8.27%
23 | O=C(Cn1cnc2c(nnn2Cc2ccc(F)cc2)c1=O)Nc1ccccc1 | 3.63%

Row | Compound | hERG current change (%, negative = inhibition) at 1uM
24 | CC1CN(C(=O)c2ccccc2)C(=Nc2cccc(S(=O)(=O)N(C)C)c2)S1 (stereo not drawn) | 5.14%
25 | Cc1ccccc1NC(=O)OCc1cccnc1Oc1ccc(Cl)cc1 | 3.29%
26 | CCn1cc(C(=O)NCc2ccc3c(c2)OCO3)c(=O)c2cc(S(=O)(=O)N(C)C)ccc21 | 4.07%
27 | Nc1nnc(Cc2ccc(Cl)c(Cl)c2)s1 | 5.65%
28 | O=C(C[n+]1cc(-c2ccc(F)cc2)n2c1CCC2)OCc1ccccc1.[Br-] | 7.47%
29 | O=C(O)Cc1ccc2ccc3ccccc3c2c1 | 14.1%
30 | COc1ccc(C2CC(c3cccs3)=NN2C(=O)CSc2nnnn2C)cc1OC (stereo not drawn) | -5.07%
31 | Cc1cc(C)cc(OCc2nnc(SCC(=O)NC3CC3)n2C)c1 | 18.9%
32 | Cc1ccccc1NC(=O)C(=O)NCCCN1CCOCC1 | 11.2%
33 | CN(CC(=O)Nc1ccccc1C(F)(F)F)CC(=O)N1CCCCCC1 | -1.24%
34 | O=C(NCc1csc(-c2cccs2)n1)c1ccsc1 | 6.19%
35 | COC(=O)C(C)NC(=O)C1CCCN1C(=O)CNC(=O)OCc1ccccc1 (stereo not drawn) (Cbz-Gly-Pro-Ala-OMe; configuration not given here) | 17%
36 | O=C(C#Cc1ccccc1)c1cccc([N+](=O)[O-])c1 | 19.2%
37 | CCn1c(Cc2ccccc2)nnc1SCC(=O)Nc1ccc(N2CCOCC2)c(Cl)c1 | 10.6%
38 | CC1CN(CCCCSc2ccc(Cl)cc2)CC(C)O1.O=C(O)C(=O)O (stereo not drawn) | 6.81%
39 | COc1ccccc1NC(=O)CSc1nc2ccccc2c(=O)n1CCNC(C)=O | -14.5%
40 | CCC(=O)Nc1sc2c(c1C#N)CC(C)(CC)OC2 (stereo not drawn) | 17.7%
41 | CNC(=O)n1ccc(C(=O)N2CCCCC2)n1 | 14.1%
42 | CCc1nc2n[nH]c(N)c2c2c1CCCC2 | 0.243%
43 | CCc1nnc(NC(=O)c2ccc(S(=O)(=O)N3CCCCC3C)cc2)s1 (stereo not drawn) | 14.8%
44 | Nc1nnc(SC2CC(=O)N(c3ccccc3)C2=O)s1 (stereo not drawn) | 15.3%
45 | Cc1ccnc(NC(=O)COc2ccc3oc4c(c3c2)CCCC4)c1 | 4.7%
46 | Cc1ccc(OCCN2CCNCC2)c([N+](=O)[O-])c1.O=C(O)C(=O)O | 17.4%

Row | Compound | hERG current change (%, negative = inhibition) at 1uM
47 | O=C(NCCCNc1ccc(C(F)(F)F)cc1[N+](=O)[O-])c1cc(F)c(F)cc1Cl | 1.62%
48 | CC(C)(C)C(=O)COC(=O)c1ccc2c(c1)C(=O)N(Cc1ccco1)C2=O | 5.79%
49 | COc1ccc(C(=O)N2CC3(CC(c4cccc(NC(=O)CC(c5ccccc5)c5ccccc5)c4)=NO3)C[C@H]2C(N)=O)cc1 (stereo partly drawn) | 1.05%
50 | O=C(O)C/C(=C\c1cc2c(cc1Br)OCO2)c1nc2ccccc2s1 | 4.74%
51 | COc1ccc(NC(=O)C(C)N=C2NS(=O)(=O)c3ccccc32)cc1S(N)(=O)=O (stereo not drawn) | 0.659%
52 | FC(F)Oc1ccc(NC(=S)NC2CCSc3ccccc32)cc1 (stereo not drawn) | 8.41%
53 | COc1cc(C(=O)N/C(=C\c2cn(C)c3ccccc23)C(=O)N2CCOCC2)cc(OC)c1OC | 10.3%
54 | COc1ccc(C2C3=C(CC(C)(C)CC3=O)Oc3ncn(CCCn4ccnc4)c(=N)c32)cc1 (stereo not drawn) | 17.9%
55 | COc1ccc(CNc2nc3ccccc3n2CCN2CCOCC2)cc1 | -46.5%
56 | Cc1cc(S(=O)(=O)N2CCN=C2c2ccccc2)ccc1F | 13.9%
57 | Fc1ccc(Sc2ccccc2CNC2=NCCN2)cc1.I | 2.54%
58 | COCCCNC(=O)CN(c1cccc(Cl)c1C)S(C)(=O)=O | 9.42%
59 | Cc1ccc(NC(=O)c2ccc3c(c2)C(=O)N(Cc2cccnc2)C3=O)c(C)c1 | 11.6%
60 | Fc1ccc(CNC(=S)NC2CCCCC2)cc1 | 7.78%
61 | CCc1ccccc1N1CC23C=CC(O2)C(C(=O)OC)C3C1=O (stereo not drawn) | 10.5%
62 | O=C(/C=C/c1ccccc1[N+](=O)[O-])NCCCn1ccnc1 | 15.1%
63 | Cn1c(O)c(C=NCCN2CCOCC2)c(=O)n(C)c1=S | 6.19%
64 | CC(C)=C1Cc2ccccc2C1=O | 11.6%
65 | CC(C)NS(=O)(=O)c1ccc(OCC(=O)Nc2ccc(F)cc2)cc1 | 5.85%
66 | Cc1ccccc1-n1c(C)nc2sccc2c1=O | 9.53%
67 | Cc1ccc(Cn2nnc3c(=O)[nH]c(C4CCN(S(=O)(=O)/C=C/c5ccccc5)CC4)nc32)cc1 | 1.07%
68 | O=[N+]([O-])c1ccc(Cl)cc1N1CCCC1 | 16.6%
69 | CC1CC(C)CN(CCCCOc2ccc([N+](=O)[O-])cc2)C1.O=C(O)C(=O)O (stereo not drawn) | -80.3%

Row | Compound | hERG current change (%, negative = inhibition) at 1uM
70 | COc1ccccc1CC(=O)NNC(=O)c1cccs1 | 10.8%
71 | COc1cc(C#N)c(NS(=O)(=O)c2ccc3[nH]c(=O)sc3c2)cc1OC | 18%
72 | Cn1cnc(S(=O)(=O)N2CCc3ccccc32)c1 | 8.42%
73 | CCN(CC)C(=O)Oc1ccc2ccccc2c1Br | 12.1%
74 | Cc1nc2ccccc2c(=O)n1NC(=O)c1cccnc1Cl | 22.1%
75 | COCCCNC(=S)Nc1ccccc1[N+](=O)[O-] | 6%
76 | Cc1ccc(-n2c(SCC(=O)N3CCCc4ccccc43)nnc2-c2cccnc2)c(C)c1 | 11%
77 | Nn1c(SCC(=O)Nc2cc(S(=O)(=O)N3CCOCC3)ccc2Cl)nnc1-c1cccnc1 | 12.1%
78 | Cc1ccc(NC(=S)N2CCN(C)CC2)c(C)c1 | 6.58%
79 | CN=c1scc(-c2ccc(Br)cc2)n1C | -8.31%
80 | COC(=O)c1cc(Cn2nc(C(=O)O)c3ccccc3c2=O)oc1C | 14.9%
81 | CC(=O)Nc1ccc(Oc2nc(C(F)(F)F)nc3ccccc23)cc1 | 17.8%
82 | Cc1ccc(S(=O)(=O)N2CCN(C(=O)c3n[nH]c(=O)c4ccccc34)CC2)cc1 | -0.915%
83 | CN1CCN(S(=O)(=O)c2ccc(NC(=S)NC(=O)C(C)(C)C)cc2)CC1 | -7.68%
84 | CCCCc1ccc(NC(=O)CSc2nc(=O)n(CCCN3CCOCC3)c3c2CCC3)cc1 | -10.3%
85 | C=CCOc1ccc(-c2nc3c(c(=O)[nH]c(=O)n3Cc3ccccc3)n2CCCOC)cc1 | 15.8%
86 | Cc1ccccc1/C=N/NC(=O)c1sccc1C | 13.2%
87 | CCCCN(C)CC(O)Cn1cc(/C=C/C(=O)c2ccc(C)cc2)c2ccccc21 (stereo not drawn) | 6.55%
88 | COc1ccc(/C(C)=N\NC(=O)c2ccc(-c3ccccc3)cc2)c(F)c1 | 7.33%
89 | S=C(NCc1cccs1)Nc1ccc(Cl)cc1 | 15.2%
90 | O=C(Nc1cccc(C(F)(F)F)c1)C(Sc1n[nH]c(=O)[nH]c1=O)c1ccccc1 (stereo not drawn) | -3.37%
